Reference: PubChem BioAssay AID493208 (National Center for Advancing Translational Sciences (NCATS), 2011)
Among all 44,000 compounds or so, about 340 (0.77%) were called active. Inconclusive results (about 5%) are left out. Calls follow the shape of the dose curve; as a rule, active = well fitted inhibition curve with a large enough effect; inconclusive = small, poorly fitted or top-dose-only effect; inactive = flat fitted curve, though single readings scatter. The list shows a part of the results.

Assay: Acumen qHTS Assay for Inhibitors of the mTORC1 Signaling Pathway in MEF (Tsc2-/-, p53-/-) Cells: Sytravon;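 also: plate controls were DMSO for no effect and rapamycin for full effect; nearly all actives have a fitted effect of over 50% in size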
Conditions: phospho-rpS6 immunofluorescence/PI, 24 h; series mostly up to 38.3 µM; activity change, negative = inhibition: at the top concentration
Summary of the method: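 Read-out: phospho-S6 Alexa-488 intensity over PI intensity per well, scored as % active cells using thresholds from rapamycin (7.5 nM) and DMSO controls. Tsc2-/-, p53-/- MEFs exposed to compound for 24 h; PI cell count recorded as viability.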

Activity change, negative = inhibition, inactive:
Cc1nn(Cc2noc(C(=O)NC(C)c3ccccc3)n2)c(C)c1Br (stereo not drawn) -1.03%, COc1cc(Cl)c(C)cc1NC(=O)Cn1cc(S(=O)(=O)N2CCC(C)CC2)c2ccccc2c1=O -11.4%, CCCN(CCC)c1nn2c(=O)c(C(=O)NCc3cc(Br)ccc3OC)cnc2s1 -8.12%, CCOC(=O)c1cc(-c2ccccc2)n(CC(=O)Nc2ccc(CC)cc2)c1C -6.32%, COc1ccc(OC)c(CCNC(=O)CCn2c(=O)c3cccn3c3ccc(F)cc32)c1 -19.3%, Cc1cccc(S(=O)(=O)c2cn(C)c3cc(N4CCN(c5ccc(F)cc5)CC4)c(F)cc3c2=O)c1 -8.71%, CC(C)c1ccc(NC(=O)CSC2=Nc3ccccc3C3=NC(CCC(=O)NCc4ccco4)C(=O)N23)cc1 (stereo not drawn) -3.43%, CCCCNC(=O)c1ccccc1NC(=O)CN(c1ccccc1)S(=O)(=O)N(C)C 0.209%, O=C(CSc1nc(=O)n(Cc2ccco2)c2c1CCC2)Nc1ccccc1C(F)(F)F -6.47%, Cc1ccc2c(=O)cc(C(=O)Nc3ccc(S(=O)(=O)N4CCCCCC4)cc3)oc2c1 1.96%, CCc1nnc(SCC(=O)N(CC)c2ccccc2)c2cc3oc(C)cc3n12 3.78%, CC(=O)N1CCCc2cc(S(=O)(=O)N3CCC(C(=O)NCc4ccccc4)CC3)ccc21 -2.15%, Cc1ccc(Cl)cc1N1CCN(C(=O)c2cc(S(=O)(=O)N3CCCC3)c[nH]2)CC1 0%, CCOC(=O)CNC(c1ccccc1)c1cc(Br)ccc1NC(=O)c1cccc(Cl)c1 (stereo not drawn) -9.95%, CCc1ccc(NC(=O)C2CCCN(S(=O)(=O)c3ccc(F)cc3)C2)cc1 (stereo not drawn) 3.51%, CCN(Cc1ccccc1)C(=O)Cn1c(=O)n(-c2ccc(Cl)cc2)c(=O)c2c(C)c(C)sc21 -6.76%, Cc1ccc(CN2CCSc3ccc(C(=O)Nc4ccc(C)cc4)cc32)cc1 -11.9%, Cc1ccc(Cn2c(=O)n(Cc3ccco3)c(=O)c3oc4ccccc4c32)cc1 -13.3%, CCOc1ccc(OCC)c(NC(=O)c2cnc(SC)nc2-c2ccccc2)c1 -7.65%, Cc1ccc(C)c(Cn2c(=O)n(-c3ccc(Cl)cc3)c(=O)c3c(C)c(C)sc32)c1 -0.923%, COc1ccc(CC(=O)NCC(c2ccc(Cl)cc2)N2CCOCC2)cc1 (stereo not drawn) -0.332%, CN(C)S(=O)(=O)c1ccc2c(c1)nnn2CCNC(=O)Nc1ccc(Cl)cc1 10.3%, Cc1ccc(S(=O)(=O)c2nnn3c2nc(NC2CCCCC2)c2sccc23)cc1 -7.59%, Cc1ccc(Cc2cn3cc(-c4ccccc4)nc3s2)cc1 -4.02%, Cc1ccc(C)c(Oc2nc3c(c(=O)n(C)c(=O)n3C)n2Cc2ccccc2)c1 -29%, Cc1cc(-c2ccc(C)c(S(=O)(=O)NCC3CCN(Cc4ccccc4F)CC3)c2)on1 -15.1%, Cc1ccc(SCC(=O)Nc2ccc3oc(-c4cccc(Cl)c4)nc3c2)cc1 -8.18%, O=C(Cn1ncc2c3ccccc3n(Cc3ccc(F)cc3)c2c1=O)NCc1ccccn1 -0.539%, O=C(NCc1ccccc1)C(=O)Nc1c2c(nn1-c1ccccc1)CSC2 -3.12%, COc1ccc(OC)c(CNCc2c(C(=O)O)n(Cc3cccc(F)c3)c3cc(OC)ccc23)c1 1.8%, Cc1ccc(C(c2c(O)cc(C)n(Cc3ccco3)c2=O)N2CCC(C)CC2)cc1 (stereo not drawn) 3.93%, Cc1ccccc1CCNC(=O)c1ccc2c(c1)nc1n2CCCCC1 -0.533%, Cc1cc(C)cc(NC(=O)C2CC(=O)N(c3ccccc3)C2)c1 (stereo not drawn) -8.8%, Cc1ccc(-c2nc3ccccc3o2)cc1NC(=O)Cc1ccc(Cl)cc1 8.92%, O=C(CCn1c(=O)c2sccc2n(Cc2ccc(F)cc2Cl)c1=O)NCc1ccc2c(c1)OCO2 -10%, O=C(Nc1sc2c(c1C(=O)NCC1CCCO1)CCCC2)c1cc(=O)c2ccccc2o1 (stereo not drawn) -4.91%, Cc1cccc(-c2nc(CN3CCCC(C(=O)NCCc4ccc(Cl)cc4)C3)c(C)o2)c1 (stereo not drawn) -17.9%, COC(=O)c1ccccc1NC(=O)CSc1nc(C)c(Cl)c(C)c1C#N 0.769%, Cc1ccc(-c2cc(C(=O)Oc3ccc(C#N)cc3)no2)cc1C -3.98%, CCOC(=O)c1cccc(NC(=O)c2cnc3sc(N4CCOCC4)nn3c2=O)c1 -1.88%, Cc1ccc2c(c1)c1c(c(=O)n(Cc3ccccc3)c(=O)n1CC(=O)Nc1ccccc1F)n2C 1.19%, O=C(O)c1ccc(Cn2c(SCc3ccc(F)cc3)nc3ccncc32)cc1 -0.477%, Cc1ccc2nc(NC(=O)CSc3nccn3Cc3ccc(F)cc3)sc2c1 -14.9%, COCCNc1ccc2cc(S(=O)(=O)N3CCCCC3)ccc2n1 8.86%, COCCNC(=O)CCCn1c(SCC(=O)NCc2ccc(C)cc2)nc2c(sc3ccccc32)c1=O -11.3%, CCC(C)NC(=O)c1sc2nc(C)c(C(=O)Nc3ccc(C)cc3C)c(-c3ccc(NC(C)=O)cc3)c2c1N (stereo not drawn) -14.6%, CCc1ccc(NS(=O)(=O)c2[nH]ncc2C(=O)OC)cc1 -2.66%, Cc1ccccc1Cn1c(=O)n(-c2ccc(Cl)cc2)c(=O)c2c3c(sc21)CCCC3 -26%
